Data: paper PMC12443466, “Allosteric modulation of protein kinase A in individuals affected by NLPD‐PKA, a neurodegenerative disease in which the PRKAR1B L50R variant is expressed” (The Febs Journal, 2025)

Biological target: the molecule itself
Assay: SEC; HiLoad 16/600 Superdex 200 pg; 50 mM Tris, 200 mM NaCl, pH 7.5; refolded D/D domain, peak at ~90 mL collected and re-injected

B1: Dimerization/Docking (D/D) domain of wildtype PKA-RIβ (domain or fragment)
chain: not shown
notes: D/D domain of PKA regulatory subunit RIβ (PRKAR1B); PDB 4F9K is the cited structure of the RIβ D/D domain; also called native RIβ D/D domain; wildtype D/D domain
stoichiometry N: 2
